Laboratory results from paper PMC6688997 (Nature Communications, 2019).

Experiments:
[1] = biological target: T1, phospho-ROS1 in Ba/F3-CD74-ROS1-G2032R xenograft tumors (Homo sapiens, UniProt P04233+P08922, G2032R); assay: Immunoblot of xenograft tumors; assay type: in vivo, mouse; conditions: repeated daily oral dosing
T1 construct: CD74 (N-terminal fusion partner, human CD74 P04233); expressed in transfected cells; host or cells: Ba/F3 (murine pro-B cells), retroviral infection

[2] = test system: MGH193-1B patient-derived cells; assay: CellTiter-Glo cell viability assay; conditions: 72–120 h

T1 sequence (P08922 1883-2347 G2032R limits assumed, one chain of several): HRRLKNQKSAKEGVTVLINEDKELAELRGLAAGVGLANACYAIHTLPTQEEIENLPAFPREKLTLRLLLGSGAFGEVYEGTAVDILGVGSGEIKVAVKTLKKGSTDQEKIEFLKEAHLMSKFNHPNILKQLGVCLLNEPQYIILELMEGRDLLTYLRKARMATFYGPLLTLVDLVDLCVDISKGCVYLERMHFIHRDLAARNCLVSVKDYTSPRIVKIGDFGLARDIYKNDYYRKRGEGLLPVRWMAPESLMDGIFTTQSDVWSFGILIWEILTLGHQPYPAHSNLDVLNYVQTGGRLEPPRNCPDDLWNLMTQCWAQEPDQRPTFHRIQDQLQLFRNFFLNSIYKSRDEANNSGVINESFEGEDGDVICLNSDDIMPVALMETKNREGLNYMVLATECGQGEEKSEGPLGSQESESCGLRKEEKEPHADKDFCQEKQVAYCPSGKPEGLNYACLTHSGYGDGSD

SMILES	Inhibition of phospho-ROS1 in tumors [1]	Sensitivity (cell viability) [2]
C[C@@H](N)COc1ccc(-c2cnc3ccc(N[C@H](C)c4cccc(F)c4)nn23)cc1.O=C(O)CCCCC(=O)O [DS-6051b]	almost completely inhibited	–
C[C@@H](Oc1cc(-c2cnn(C3CCNCC3)c2)cnc1N)c1c(Cl)ccc(F)c1Cl [crizotinib, reference compound]	–	sensitive
